According to PubChem BioAssay AID588855 (National Center for Advancing Translational Sciences (NCATS), 2011):
The whole screen tested about 410,000 compounds, of which about 5,000 (1.2%) were called active. Inconclusive means that the source gave no clear call. Such entries were picked first, then a sample of the others. Calls follow the shape of the dose curve; as a rule, active = well fitted inhibition curve with a large enough effect; inconclusive = small, poorly fitted or top-dose-only effect; inactive = no such curve, though single readings can be large or run the other way. A potency beside an inconclusive call is a rough fit, not a confirmed value.

Assay: qHTS for Inhibitors of TGF-b; also: nearly all actives have a fitted effect of over 65% in size
Conditions: HepG2 CAGA-GFP TGF-b/SMAD3 reporter, GFP fluorescence, 18 h, TGF-beta stimulated, 500 pg/mL final; series mostly up to 46.1 µM
How it was run: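 Inhibition was scored as loss of TGF-beta-induced (500 pg/mL final, 18 hours, 37 degrees C) GFP in HEPG2 cells carrying a CAGA-GFP reporter, in DMEM with 1% FBS. Well GFP was summed per cell; Activity was normalised to unstimulated and stimulated DMSO wells, then concentration-response fitting.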
Potency is read from the fitted curve at half-maximal effect; tags tell the direction and shape of the fitted curve.

| Structure (SMILES) | Potency |
| --- | --- |
| CC1CCCC(NC(=O)Cc2ccc(Br)cc2)C1C (stereo not drawn) | inconclusive: 0.501 µM [inhibitor, full curve, poor fit] |
| c1ccc2c(-c3nc4ncccc4o3)cccc2c1 | inactive |
| COC(=O)N/N=C/c1ccc(-c2cccc(Cl)c2)o1 | inactive |
| CCOC(=O)[C@H]1[C@H]2COc3ccc(Br)cc3[C@H]2N2C(=O)CN(CCc3c[nH]c4ccccc34)C(=O)[C@@]12C | inconclusive: 35.5 µM [inhibitor, single point] |
| Cc1ccc2nc(SC(Cc3cc(Cl)ccc3Cl)C(=O)O)[nH]c2c1 (stereo not drawn) | inconclusive: 2.51 µM [inhibitor, partial curve, poor fit] |
| Cc1ccc(NC(=O)C(Nc2cccc(C)c2)c2ccccc2)cc1 (stereo not drawn) | inconclusive: 20 µM [inhibitor, single point] |
| Cc1cc(NC(=O)/C(C#N)=C/c2ccc(-c3cccc(C(F)(F)F)c3)o2)n(-c2ccccc2)n1 | inconclusive: 35.5 µM [inhibitor, single point] |
| COc1ccc(CCCNC(=O)C2Cc3c(-c4cccc(NC(C)=O)c4)ccnc3O2)cc1 (stereo not drawn) | inconclusive: 10 µM [inhibitor, partial curve, poor fit] |
| O=C(NCc1cccc(C(F)(F)F)c1)C1CC(c2ccccc2F)=NO1 (stereo not drawn) | inconclusive: 14.1 µM [inhibitor, single point] |
| Cc1cc(NC(=O)Cn2nnc(-c3ccccc3N)n2)no1 | inconclusive: 22.4 µM [inhibitor, single point] |
| Cc1ccc(C)c(N2CCN(C(=O)C3CCN(Cc4nc(-c5cccc(Cl)c5)oc4C)CC3)CC2)c1 | inactive |
| Cc1ccc(C2CC(c3cccs3)=NN2C(=O)c2ccc(Br)o2)cc1 (stereo not drawn) | inconclusive: 3.16 µM [inhibitor, single point] |
| Cc1ccc(C(=O)Nc2ccc(N3CCOCC3)cc2)cc1S(=O)(=O)N1CCCCC1 | inconclusive: 35.5 µM [inhibitor, single point] |
| O=C(NCc1ccccc1)C1(CC2CC(c3ccccc3)=NO2)CCNCC1 (stereo not drawn) | inconclusive: 11.2 µM [inhibitor, single point] |
| NC(=O)Cc1ccc2sc(-c3ccccc3)nc2c1 | inconclusive: 11.2 µM [inhibitor, single point] |
| Brc1ccccc1-c1nnc(COc2ncnc3c2cnn3-c2ccccc2)o1 | inconclusive: 35.5 µM [inhibitor, single point] |
| CCOC(=O)C1CCC(CN(Cc2c(Cl)cccc2Cl)S(=O)(=O)c2ccc(F)c(C)c2)CC1 (stereo not drawn) | inactive |
| COc1ccc(C)cc1S(=O)(=O)N(CC(=O)NCc1ccc(Cl)cc1)Cc1ccccc1 | active: 12.6 µM |
| Cc1sc2nc(C(C)Nc3ccccc3N3CCOCC3)[nH]c(=O)c2c1C (stereo not drawn) | inconclusive: 15.8 µM [inhibitor, single point] |
| CC1(C)Cc2c(c(N3CCOCC3)nc3sc4c(NN)ncnc4c23)CS1 | inconclusive: 20 µM [inhibitor, partial curve, poor fit] |
| COc1ccccc1NS(=O)(=O)c1cccc(C(=O)NCc2ccco2)c1 | inactive |
| CN(C)CCOc1ccc2ccccc2c1 | inconclusive: 11.2 µM [inhibitor, single point] |

| Structure (SMILES) | Potency |
| --- | --- |
| CCOC(=O)c1c(C)[nH]c(C)c1S(=O)(=O)N(C)CC(=O)Nc1cc(Cl)ccc1OC | inconclusive: 10 µM [inhibitor, partial curve, poor fit] |
| COc1ccccc1/C=C/C(=O)NC(=S)NC(C)C | inconclusive: 35.5 µM [inhibitor, single point] |
| Cc1ccccc1NS(=O)(=O)c1ccc(NC(=O)N2CCCCC2)cc1 | inconclusive: 35.5 µM [inhibitor, single point] |
| CC(=O)c1ccc(-c2ccc([C@H]3[C@H]4C=CC[C@@H](C)[C@@H]4C(=O)N3Cc3ccccc3)c(F)c2)cc1 | inconclusive: 22.4 µM [inhibitor, partial curve, poor fit] |
| Cc1nc2ccc(NS(=O)(=O)c3ccccc3F)cc2s1 | inconclusive: 35.5 µM [inhibitor, single point] |
| CCOC(=O)c1c(CC(C)C)csc1NC=O | inactive |
| CC(Oc1ccc(Cl)cc1Cl)C(=O)Nc1ccc(O)cc1 (stereo not drawn) | inactive |
| CC(C)COC(=O)Nc1nnc(Cc2ccccc2)s1 | inconclusive: 5.62 µM [inhibitor, single point] |
| CC(C)c1ccc(C(O)P(=O)(OC2CCCCC2)OC2CCCCC2)cc1 (stereo not drawn) | inconclusive: 35.5 µM [inhibitor, single point] |
| COc1ccc(CC(=O)Nc2nc(-c3ccc(F)c(F)c3)cs2)cc1OC | inconclusive: 35.5 µM [inhibitor, single point] |
| Oc1cccc(Nc2nc(-c3ccccc3)nc3ccccc23)c1 | inconclusive: 35.5 µM [inhibitor, single point] |
| CC1(C)C(=O)N(CC(=O)Nc2ccc(OC(F)(F)F)cc2)c2ccccc21 | inconclusive: 35.5 µM [inhibitor, single point] |
| Cn1nnnc1SCc1cn2cccnc2n1 | inconclusive: 3.98 µM [inhibitor, single point] |
| O=C(O)Cc1csc(-c2ccc(F)cc2)n1 | inconclusive: 35.5 µM [inhibitor, single point] |
| Cc1ccc(NC(=O)c2noc3c2CCc2ccccc2-3)cc1 | inactive |
| CCN(CCCNC(=O)c1cc2cc3cc(OC)ccc3nc2s1)c1ccccc1 | inconclusive: 8.91 µM [inhibitor, partial curve, poor fit] |
| Cc1cc(NC(=O)c2ccc(Cl)c(Cl)c2)ccc1-c1cc2ccccc2oc1=O | inactive |
| COc1ccc(C2NC(C(=O)O)Cc3c2[nH]c2ccccc32)cc1CN1CCN(c2ccc(F)cc2)CC1 (stereo not drawn) | inactive |
| Cc1c(Cl)cccc1NC(=S)N(Cc1ccco1)C(C)c1ccccn1 (stereo not drawn) | inconclusive: 35.5 µM [inhibitor, single point] |
| Cc1ccccc1CC1(CO)CCCN(C(=O)CCC(F)(F)F)C1 (stereo not drawn) | inactive |
| O=C(O)c1cccc(-c2noc(-c3cccc(Cl)c3)n2)c1 | inconclusive: 6.31 µM [inhibitor, single point] |
